In PubChem BioAssay AID686970 (National Center for Advancing Translational Sciences (NCATS), 2013):
In all, about 360,000 compounds went through this assay and about 6,000 (1.7%) were called active. The shares of active, inactive and inconclusive entries below differ from those in the screen. Calls follow the shape of the dose curve; as a rule, active = well fitted cell-killing curve with a large enough effect; inconclusive = small, poorly fitted or top-dose-only effect, or effect the other way; inactive = flat fitted curve, though single readings scatter. No potency is given beside an inconclusive call; the fits are too rough.
Potency is read from the fitted curve at half-maximal effect; tags tell the direction and shape of the fitted curve.

Assay: qHTS for induction of synthetic lethality in tumor cells producing 2HG: qHTS for the HT-1080-NT fibrosarcoma cell line;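 also: NT is the 2HG producing partner of a matched IDH1 knockdown line; nearly all actives have a fitted effect of over 55% in size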;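 as to activity, negative = less viability: 0% = DMSO-treated cells and -100% = media-only wells without cells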
Details: HT-1080-NT fibrosarcoma viability, CellTiter-Glo ATP luminescence, 48 h; activity, negative = less viability: at 46.1 µM (top of the series) unless noted
Outline: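 Viability by CellTiter-Glo luminescence after 48 h compound exposure at 37C of HT-1080-NT cells (750/well, RPMI, 5% FBS). % activity scaled between DMSO wells and medium-only wells, then curve-fitted and categorized by curve class.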
With `OCCC1CN(Cc2cnc(-c3ccc(Cl)cc3)nc2)CCN1C1CCCC1` (stereo not drawn) the Potency was inconclusive [cytotoxic, single point]. For `COc1ccc(/C=C(\C#N)C(=O)OCC(=O)Nc2c(C)cccc2C(C)C)cc1`, the “activity, negative = less viability” value was inactive: 11.9%. With `CCOC(=O)N1CCC(NS(=O)(=O)c2ccc(C)c(Cl)c2)CC1` the “activity, negative = less viability” value was inactive: -25.7%. In the case of `C[C@@H]1CN([C@H](C)CO)C(=O)CCCn2nncc2CO[C@@H]1CN(C)S(=O)(=O)c1ccc(F)cc1`, the “activity, negative = less viability” value is reported as inactive: 6.78%. With `COc1cccc(OC2OC3COC(C)(C)OC3C(O)C2NC(C)=O)c1` (stereo not drawn) the Potency was inconclusive [rising, single point]. For `CCOC(=O)C1Nc2ccc(C(F)(F)F)cc2C2c3ccccc3CC12` (stereo not drawn), the Potency was inconclusive [cytotoxic, single point]. In the case of `CCOc1ccc(N(CC(=O)NCc2cccnc2)S(=O)(=O)c2ccc(F)cc2)cc1`, the “activity, negative = less viability” value is reported as inactive: 8.81%. With `COc1ccccc1-c1cc(C(=O)Nc2cccnc2Cl)no1` the Potency was inconclusive [rising, partial curve]. In the case of `CC(C)(c1ccccc1)c1ccc(OCC(O)CNC2CCN(Cc3ccccc3)CC2)cc1` (stereo not drawn), the Potency is reported as active: 3.26 µM. In the case of `COc1ccc(CC(N)c2csc(NC(=O)Nc3ccc(F)cc3)n2)cc1` (stereo not drawn), the Potency is reported as inconclusive [cytotoxic, partial curve]. With `COc1ccc(NC(=O)/C(Cl)=C(/Cl)S(=O)(=O)Cc2ccc(C)cc2)cn1` the Potency was active: 23.1 µM. In the case of `Cc1ccc(NC(=O)COc2cccc(/C=C3\SC(=S)N(CCC(=O)O)C3=O)c2)cc1Cl`, the Potency is reported as inconclusive [cytotoxic, single point]. In the case of `CC1Cc2ccccc2N1C(=O)Cn1cc([N+](=O)[O-])cn1` (stereo not drawn), the “activity, negative = less viability” value is reported as inactive: 0.361%. For `O=S(=O)(c1ccc(Cl)cc1)N1CCN(C(=S)NCC2CCCO2)CC1` (stereo not drawn), the “activity, negative = less viability” value was inactive: -5.92%. With `O=C(Nc1ccc(Cl)cc1)N1CCCN(Cc2ccccc2F)C1` the Potency was inconclusive [cytotoxic, single point]. In the case of `Cc1ccc(-c2cc(C(=O)N/N=C/c3c(C)nn(C)c3C)c3ccccc3n2)cc1C`, the Potency is reported as inconclusive [cytotoxic, single point]. For `C#CCOCCOCCOCCNc1nc(N2CCN(C(=O)CCCCCCCCCCNC(=O)[C@H](CCCCN)n3cc(CCO)nn3)CC2)nc(N2CCN(C(=O)CCCCCCCCCCNC(=O)[C@H](CCCCN)n3cc(C[C@@H](C)CC)nn3)CC2)n1`, the Potency was inconclusive [cytotoxic, single point]. For `COc1cc(Cl)ccc1OCc1cc(C(=O)N(C)Cc2cccc3cnccc23)no1`, the Potency was inconclusive [cytotoxic, single point].
